{"source": "patent US7595299B2", "about": "“Peptides as NS3-serine protease inhibitors of hepatitis C virus” (priority 2000, dated 2009)", "target": "Recombinant heterodimeric HCV NS3/NS4A protease (strain 1a) (Hepatitis C virus genotype 1a, UniProt P27958)", "assay": "biochemical", "protocol": "Spectrophotometric Assay: Spectrophotometric assay for the HCV serine protease was performed on the inventive compounds by following the procedure described by R. Zhang et al, Analytical Biochemistry, 270 (1999) 268-275, the disclosure of which is incorporated herein by reference. The assay based on the proteolysis of chromogenic ester substrates is suitable for the continuous monitoring of HCV NS3 protease activity. The substrates were derived from the P side of the NS5A-NS5B junction sequence (Ac-DTEDVVX(Nva), where X=A or P) whose C-terminal carboxyl groups were esterified with one of four different chromophoric alcohols (3- or 4-nitrophenol, 7-hydroxy-4-methyl-coumarin, or 4-phenylazophenol). […] Materials and Methods:\nMaterials: Chemical reagents for assay related buffers were obtained from Sigma Chemical Company (St. Louis, Mo.). Reagents for peptide synthesis were from Aldrich Chemicals, Novabiochem (San Diego, Calif.), Applied Biosystems (Foster City, Calif.) and Perseptive Biosystems (Framingham, Mass.). Peptides were synthesized manually or on an automated ABI model 431A synthesizer (from Applied Biosystems). UV/VIS Spectrometer model LAMBDA 12 was from Perkin Elmer (Norwalk, Conn.) and 96-well UV plates were obtained from Corning (Corning, N.Y.). The prewarming block was from USA Scientific (Ocala, Fla.) and the 96-well plate vortexer was from Labline Instruments (Melrose Park, Ill.). A Spectramax Plus microtiter plate reader with monochrometer was obtained from Molecular Devices (Sunnyvale, Calif.).\nProtein concentrations were determined by the Biorad dye method using recombinant HCV protease standards previously quantified by amino acid analysis. Prior to assay initiation, the enzyme storage buffer (50 mM sodium phosphate pH 8.0, 300 mM NaCl, 10% glycerol, 0.05% lauryl maltoside and 10 mM DTT) was exchanged for the assay buffer (25 mM MOPS pH 6.5, 300 mM NaCl, 10% glycerol, 0.05% lauryl maltoside, 5 μM EDTA and 5 μM DTT) utilizing a Biorad Bio-Spin P-6 prepacked column.\nSubstrate Synthesis and Purification: The synthesis of the substrates was done as reported by R. Zhang et al, (ibid.) and was initiated by anchoring Fmoc-Nva-OH to 2-chlorotrityl chloride resin using a standard protocol (K. Barlos et al, Int. J. Pept. Protein Res., 37 (1991), 513-520). The peptides were subsequently assembled, using Fmoc chemistry, either manually or on an automatic ABI model 431 peptide synthesizer. […] The combined filtrate and DCM wash was evaporated azeotropically (or repeatedly extracted by aqueous Na2CO3 solution) to remove the acid used in cleavage. The DCM phase was dried over Na2SO4 and evaporated.\nThe ester substrates were assembled using standard acid-alcohol coupling procedures (K. Holmber et al, Acta Chem. Scand., B33 (1979) 410-412). Peptide fragments were dissolved in anhydrous pyridine (30-60 mg/ml) to which 10 molar equivalents of chromophore and a catalytic amount (0.1 eq.) of para-toluenesulfonic acid (pTSA) were added. Dicyclohexylcarbodiimide (DCC, 3 eq.) was added to initiate the coupling reactions. […] Pyridine solvent was evaporated under vacuum and further removed by azeotropic evaporation with toluene. The peptide ester was deprotected with 95% TFA in DCM for two hours and extracted three times with anhydrous ethyl ether to remove excess chromophore. The deprotected substrate was purified by reversed phase HPLC on a C3 or C8 column with a 30% to 60% acetonitrile gradient (using six column volumes).", "key": {"[1]": {"details": "HCV protease continuous assay, Table 1, read-out: Ki* Range"}}, "note": "Read-outs that look alike come from different tables or passages of the source. Starred links: 1 amine or outer side, 2 acyl side, 3 side chain; linkers in the order of their positions; H or OH if unused. Non-standard residues stand in square brackets, D forms with d. Residues, ends and D or L forms follow the SMILES beside them. ξ: configuration not given here. *: point of attachment. Phe(3,4,5-F3) = N[C@@H](Cc1cc(F)c(F)c(F)c1)C(=O)O; Succinyl(3ξ-Ph) = O=C(O)C(CC(=O)*)c1ccccc1; 2Nal = N[C@@H](Cc1ccc2ccccc2c1)C(=O)O; Isobutyloxycarbonyl = CC(C)COC(=O)*; X2 = O=C(C(=O)[*:2])C(CC1CC1)N[*:1]; X4 = CCCC(N[*:1])C(=O)C(=O)[*:2]; X36 = O=C(O)C1C2CCC(C2)C1C(=O)*; Ala(cPr) = N[CH](CC1CC1)C(=O)O; X5 = CCOC(=O)C1CCC(OC(=O)*)CC1; Chg = N[CH](C(=O)O)C1CCCCC1; Phg = N[CH](C(=O)O)c1ccccc1; ξPhg = NC(C(=O)O)c1ccccc1; 2Abz = Nc1ccccc1C(=O)O; Boc = CC(C)(C)OC(=O)*; OBn = c1ccc(CO*)cc1; OtBu = CC(C)(C)O*", "data": [{"smiles": "CCCC(NC(=O)[C@H](CC(C)C)NC(=O)[C@@H](NC(=O)C1C2CCC(C2)C1C(=O)O)C1CCCCC1)C(=O)C(=O)NCC(=O)N[C@H](C(=O)O)c1ccccc1", "note": "(stereo partly shown) [Example 30] (X36-[Chg]L[X4]G[Phg]-OH)", "values": [{"measurement": "Ki", "setting": "[1]", "value": "0.101 to 1", "unit": "µM"}]}, {"smiles": "CCCC(NC(=O)[C@H](CC(C)C)NC(=O)[C@@H](NC(=O)OCC(C)C)C1CCCCC1)C(=O)C(=O)NCC(=O)N[C@H](C(=O)O)c1ccccc1", "note": "(stereo partly shown) (Isobutyloxycarbonyl-[Chg]L[X4]G[Phg]-OH)", "values": [{"measurement": "Ki", "value": "0.101 to 1", "unit": "µM"}]}, {"smiles": "CCCC(NC(=O)[C@H](Cc1c[nH]cn1)NC(=O)[C@@H](NC(=O)OC(C)(C)C)C1CCCCC1)C(=O)C(=O)NCC(=O)N[C@H](C(=O)O)c1ccccc1", "note": "(stereo partly shown) [Example 38] (Boc-[Chg]H[X4]G[Phg]-OH)", "values": [{"measurement": "Ki", "setting": "[1]", "value": "0.101 to 1", "unit": "µM"}]}, {"smiles": "CCCC(NC(=O)[C@H](Cc1cc(F)c(F)c(F)c1)NC(=O)[C@@H](NC(=O)OC(C)(C)C)C1CCCCC1)C(=O)C(=O)NCC(=O)NC(C(N)=O)c1ccccc1", "note": "(stereo partly shown) [Example 10] (Boc-[Chg][Phe(3,4,5-F3)][X4]G[ξPhg]-NH2)", "values": [{"measurement": "Ki", "setting": "[1]", "value": "> 1", "unit": "µM"}]}, {"smiles": "CC(C)COC(=O)NC(C(=O)NC(CC1CC1)C(=O)NC(CC1CC1)C(=O)C(=O)NCC(=O)NC(C(=O)N(C)C)c1ccccc1)C1CCCCC1", "note": "(stereo not shown) [Example 120] (Isobutyloxycarbonyl-[Chg][Ala(cPr)][X2]G[Phg]-NMe2; configuration not given here)", "values": [{"measurement": "Ki", "setting": "[1]", "value": "< 0.1", "unit": "µM"}]}, {"smiles": "CCCC(NC(=O)[C@H](CC(C)C)NC(=O)[C@@H](NC(=O)OC(C)(C)C)C1CCCCC1)C(=O)C(=O)NCC(=O)N[C@H](C(N)=O)c1ccccc1", "note": "(stereo partly shown) [Example 5] (Boc-[Chg]L[X4]G[Phg]-NH2)", "values": [{"measurement": "Ki", "setting": "[1]", "value": "0.101 to 1", "unit": "µM"}]}, {"smiles": "CCCC(NC(=O)[C@H](CC(C)C)NC(=O)[C@@H](NC(=O)OCC(C)C)C1CCCCC1)C(=O)C(=O)NCC(=O)NC(C(=O)NC1CCCCC1)c1ccc(OCC)cc1", "note": "(stereo partly shown) [Example 27]", "values": [{"measurement": "Ki", "setting": "[1]", "value": "> 1", "unit": "µM"}]}, {"smiles": "CCCC(NC(=O)[C@H](CC(C)C)NC(=O)[C@@H](NC(=O)c1ccc(S(N)(=O)=O)cc1)C1CC[S+]([O-])CC1)C(=O)C(=O)NCC(=O)N[C@H](C(=O)O)c1ccccc1", "note": "(stereo partly shown) [Example 79]", "values": [{"measurement": "Ki", "setting": "[1]", "value": "> 1", "unit": "µM"}]}, {"smiles": "CCCC(NC(=O)[C@H](CC(C)C)NC(=O)[C@@H](NC(=O)CC(C(=O)O)c1ccccc1)C1CCCCC1)C(=O)C(=O)NCC(=O)N[C@H](C(=O)OCc1ccccc1)c1ccccc1", "note": "(stereo partly shown) [Example 15] ({Succinyl(3ξ-Ph)}-[Chg]L[X4]G[Phg]-OBn)", "values": [{"measurement": "Ki", "setting": "[1]", "value": "0.101 to 1", "unit": "µM"}]}, {"smiles": "CCCC(NC(=O)[C@H](CC(C)C)NC(=O)[C@@H](NC(=O)OC1CCC(C(=O)OCC)CC1)C1CCCCC1)C(=O)C(=O)NCC(=O)N[C@H](C(=O)O)c1ccccc1", "note": "(stereo partly shown) (X5-[Chg]L[X4]G[Phg]-OH)", "values": [{"measurement": "Ki", "setting": "Table 3, solid phase compounds, read-out: Ki* CLASS", "value": "0.101 to 1", "unit": "µM"}]}, {"smiles": "CCCC(NC(=O)C(CC1SCCCS1)NC(=O)C(NC(=O)OCC(C)C)C1CCCCC1)C(=O)C(=O)NCC(=O)NC(C(=O)OC(C)(C)C)c1ccccc1", "note": "(stereo not shown) [Example 42]", "values": [{"measurement": "Ki", "setting": "[1]", "value": "> 1", "unit": "µM"}]}, {"smiles": "CCCC(NC(=O)[C@H](CC(C)C)NC(=O)[C@@H](NC(=O)c1ccccc1N)C1CCCCC1)C(=O)C(=O)NCC(=O)N[C@H](C(=O)O)c1ccccc1", "note": "(stereo partly shown) [Example 70] (H-[2Abz][Chg]L[X4]G[Phg]-OH)", "values": [{"measurement": "Ki", "value": "0.101 to 1", "unit": "µM"}]}, {"smiles": "CCCC(NC(=O)[C@H](Cc1ccc2ccccc2c1)NC(=O)[C@@H](NC(=O)OC(C)(C)C)C1CCCCC1)C(=O)C(=O)NCC(=O)NC(C(N)=O)c1ccccc1", "note": "(stereo partly shown) [Example 9] (Boc-[Chg][2Nal][X4]G[ξPhg]-NH2)", "values": [{"measurement": "Ki", "setting": "[1]", "value": "> 1", "unit": "µM"}]}, {"smiles": "CCCC(NC(=O)C(CC1CC1)NC(=O)C(NC(=O)OCC(C)C)C1CCCCC1)C(=O)C(=O)NCC(=O)NC(C(=O)OC(C)(C)C)c1ccccc1", "note": "(stereo not shown) [Example 61] (Isobutyloxycarbonyl-[Chg][Ala(cPr)][X4]G[Phg]-OtBu; configuration not given here)", "values": [{"measurement": "Ki", "setting": "[1]", "value": "> 1", "unit": "µM"}]}, {"smiles": "CCCC(NC(=O)C(CC1SCCS1)NC(=O)C(NC(=O)OCC(C)C)C1CCCCC1)C(=O)C(=O)NCC(=O)NC(C(=O)OC(C)(C)C)c1ccccc1", "note": "(stereo not shown) [Example 40]", "values": [{"measurement": "Ki", "setting": "[1]", "value": "> 1", "unit": "µM"}]}, {"smiles": "CCCC(NC(=O)[C@H](CC(C)C)NC(=O)[C@@](C)(NC(=O)c1c(F)c(F)c(F)c(F)c1C(=O)O)C1CCCCC1)C(=O)C(=O)NCC(=O)N[C@H](C(=O)O)c1ccccc1", "note": "(stereo partly shown) [Example 86]", "values": [{"measurement": "Ki", "setting": "[1]", "value": "> 1", "unit": "µM"}]}]}
